The results in this text go back to publication PMC12136788.

This is one part of the list.

The chains are these.
T1: UNK ZnF1-3 (human, UniProt Q9C0B0 31-174)
T1 sequence: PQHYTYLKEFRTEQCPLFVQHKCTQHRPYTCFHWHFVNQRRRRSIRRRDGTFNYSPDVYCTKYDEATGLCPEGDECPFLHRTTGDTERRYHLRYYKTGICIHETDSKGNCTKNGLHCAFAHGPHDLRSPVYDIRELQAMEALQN

B1: chrX:51640900:51640901:+_ENSG00000179222_ENST00000326587|hu_mus|FALSE|FALSE (ssRNA)
RNA: GGGAGUUCUACAGUCCGACGAUCAGGGGUACUGAUGAGAAUAUACAGAUGCUCUUCUUUGUCGAUUUCCUUCAGCUGGAUUCCAAAUUUCUUCUCCAGGACAAAGCAUGCGCGCUCAAUGAUUUCUGGAUAGACAUCAGUGUACAACAGAGGAUUGAGCAUCA
B2: chr1:66463027:66463028:+_ENSMUSG00000015222_ENSMUST00000114013|mus_mus|mus_mus_mus_hu_True|28_38 (ssRNA)
RNA: GGGAGUUCUACAGUCCGACGAUCUUUUCUUUCAGGAGUGGAAAUUCUGCCUCUCCCGGUUUUAAAAGGCUUUUCUUUUCUAUGUUUCUCAAGAGAUGGUCUCCGAGCAUCCUUCUCAGCUUUCUCCUCUUUAGGAAUAGUUUCCAACAGAGGAUUGAGCAUCA
B3: chr11:86503612:86503613:+_ENSMUSG00000072582_ENSMUST00000108022|mus_hu|motif|central (ssRNA)
RNA: GGGAGUUCUACAGUCCGACGAUCCUGACAGGCUUCAAACACUUGUGAUGGAGGGGUUGUUGUCAUAUCAAAGUCCACCGGGUAAAGUUUUAGGUGACCAGUGACUUUGUCAAUUAGGUCUGCUGGUCCUGGCCCAAUCCCUAGCAACAGAGGAUUGAGCAUCA
B4: 100766528_100781209_1805_CDS_ENSMUSG00000037286_ENSMUST00000129269|mouse|control|control (ssRNA)
RNA: GGGAGUUCUACAGUCCGACGAUCUGCAUGUUCAUGUAACUCACUUUCCAGAAAGAAAAGAACAAGCAUCCUAAUGAGGUUCCCGUUUGGACUGUUCCUUCCUCUCCUCUUCGCUAACGCUUCCUCUGCUUGUGGGUCAUGUCUCAACAGAGGAUUGAGCAUCA
B5: 56101340_56103250_1555_CDS_ENSG00000126777_ENST00000438792|human|control|control (ssRNA)
RNA: GGGAGUUCUACAGUCCGACGAUCCUGUGCUGCCUCAUGUUCCGCUGUUCUCUUCCUGAUGUAGCUCUGAACUUCUUCCCACCUUCUCUCAGCUUCUUGUAGUUGAACCUUCAACUGAGUAGCUGCUUGCUCAGCAUUCUUCUUCAACAGAGGAUUGAGCAUCA
B6: 138255700_138258323_1902_CDS_ENSG00000122779_ENST00000415680|human|control|control (ssRNA)
RNA: GGGAGUUCUACAGUCCGACGAUCUGGCUGGCCAUGAUCUAUAUUAGUAUCUUUCCUCACAAUAUUGUCCAGCAUAAUAGUACUUGAACAGUCAAUAUCCGGAAGAGAGGGAAGAUUAUAAGACCCUCCCACUGGUGAGCUCAACAACAGAGGAUUGAGCAUCA
B7: chr2:44436386:44436387:+_ENSG00000138032_ENST00000378551|hu_hu|FALSE|FALSE (ssRNA)
RNA: GGGAGUUCUACAGUCCGACGAUCCUCUGAAUCUUUUUUCACCGCUUCAUCUGAGACCUUGGGAGCAUUUGAAAAGCAAACUAGUACAAUACUCAUGUUAUCUCGACUUCCCUUGUGUAAACAAGUGUCCACUACCCAAUUGCACAACAGAGGAUUGAGCAUCA
B8: chr1:60041781:60041782:+_ENSMUSG00000041040_ENSMUST00000036540|mus_hu|mus_mus_mus_hu_False|8_68 (ssRNA)
RNA: GGGAGUUCUACAGUCCGACGAUCAAGUUUACAAUAGUAAAGUAAAUGCAGUAGUGGCAAAUUUUCUUUACUUUAGUUUCACAAAAGAAAAUCUUUAUAACCCAGUCCUAGUCUUGGACAUAGUGAAUCUCCAUGGGUCUGACUCAACAGAGGAUUGAGCAUCA
B9: chr7:140404665:140404666:+_ENSG00000090266_ENST00000247866|hu_hu|hu_hu_hu_mus_False|78_78 (ssRNA)
RNA: GGGAGUUCUACAGUCCGACGAUCUGCUCCUACUCGUCCAGAGAGUUUACAGUGUCAGUCUUCAUCAUCAGGAGGGAUUCCCAGUUCUUCAUCUGUCCACUGUGAAGGAUCUGGAUAUGAAAAGUGACCCAGCACAGCAUCCGACAACAGAGGAUUGAGCAUCA
B10: 26878044_26878164_133_3pUTR_ENSG00000100099_ENST00000336873|human|control|control (ssRNA)
RNA: GGGAGUUCUACAGUCCGACGAUCCAGAACCACCUCUUCAAGCUCCUCUCCAGGAAAGCCAAAAGUGGGAGAUGCAUGCUAGAGCUGGUGUUCUAAAGAAAUUUCUAGCUUGUCUAGUUCAAACCCAUCCUGAAGACUCUUAUUCAACAGAGGAUUGAGCAUCA
B11: chr4:12084866:12084867:-_ENSMUSG00000028218_ENSMUST00000108285|mus_hu|motif|central (ssRNA)
RNA: GGGAGUUCUACAGUCCGACGAUCUAAAUCUUCAUCUUCAUCAAUGUUUUGUAUAUUCUGGUAGGCAGCAGUGUAGACCUCGGAAGCUUUGCCGUGAAAUAACAUUUCGAUUGUGAUAAAUUCAGAAAAUAUAGUCUUUAUAUCCAACAGAGGAUUGAGCAUCA
B12: chr8:42711381:42711382:-_ENSG00000120925_ENST00000527424|hu_mus|motif|central (ssRNA)
RNA: GGGAGUUCUACAGUCCGACGAUCCACUUCUCGAUACAUAAUGGAGAUGUAAAUAAGCAACAAAAAGAUAACAAAGAAAUCAUCGGGAAAGCCCAGAAUUCCAAACAAGGCUUCAGGUACAAAAUCUAGAGGUGAUAUUAAAUACAACAGAGGAUUGAGCAUCA
B13: chr13:113737515:113737516:+_ENSMUSG00000042426_ENSMUST00000038574|mus_mus|FALSE|FALSE (ssRNA)
RNA: GGGAGUUCUACAGUCCGACGAUCAGAAUUCCUUCCUCCAGGGCCACUCUCACAGCCCAGCUCCUCGCACACCCUGGUGGCUAAGCUCACCGCCGAGAUUCUUCGGGGCUGGGUGCAGACUAUGUUACACUUCCUGGCUCCACACAACAGAGGAUUGAGCAUCA
B14: chr7:44244176:44244177:+_ENSG00000106636_ENST00000223369|hu_mus|hu_hu_hu_mus_False|18_48 (ssRNA)
RNA: GGGAGUUCUACAGUCCGACGAUCACUGUCGCUCCGGACGUAGACAUGGCAAAGAUACUCUUGUUCUUUGACAGAAGCUCUGCUGCCUUUCGAUGAGCGUUCCACAAUCAGUUGACUCGUGAAGGUCAUGAAUUCCUGCACACUCAACAGAGGAUUGAGCAUCA

In the test the target is T1, UNK ZnF1-3. Kind of test: nsRBNS (natural sequence RNA bind-n-seq); RBNS binding buffer (assumed for nsRBNS): 25 mM Tris pH 7.5, 150 mM KCl, 3 mM MgCl2, 0.01% Triton X-100, 500 ug/ml BSA, 20 U/ml SUPERase-In, 4 C; UNK is unkempt and MSI1 is Musashi-1; names of the RNAs are library labels; protein concentration not given here; high values mean tight binding.
As for B1, the binding signal amounted to 0.933 enrichment R.

B2 returned a binding signal of 0.48 enrichment R.

In the case of B3, the binding signal is 0.62 enrichment R.

Turning to B4, the binding signal came to 0.549 enrichment R.

Regarding B5, the binding signal was found to be 0.344 enrichment R.

Take B6: the binding signal was 1.14 enrichment R.

For B7, the binding signal came out at 0.972 enrichment R.

Turning to B8, the binding signal was 0.685 enrichment R.

The molecule B9 displayed a binding signal of 1.44 enrichment R.

In the case of B10, the binding signal came out at 1.04 enrichment R.

B11 displayed a binding signal of 1.21 enrichment R.

B12: the binding signal is 2.42 enrichment R.

With B13, the binding signal is 0.634 enrichment R.

Molecule B14 had a binding signal of 0.571 enrichment R.
